Assay results taken from PMC4336329 (PLoS ONE, 2015).
Screen size: about 310,000 compounds; about 14,000 (4.5%) showed an effect of 50% or more. The effect is printed as a negative number. Some of the results follow.

What follows are molecules tested against human ether-à-go-go-related gene (hERG) potassium channel (human, UniProt Q12809) (assay: primary screen, population patch clamp on CHO cells stably expressing hERG).
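Note: peak tail current of the secondary pulse compared with the same well before compound.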

Chain of human ether-à-go-go-related gene (hERG) potassium channel (Q12809 whole entry, looked up): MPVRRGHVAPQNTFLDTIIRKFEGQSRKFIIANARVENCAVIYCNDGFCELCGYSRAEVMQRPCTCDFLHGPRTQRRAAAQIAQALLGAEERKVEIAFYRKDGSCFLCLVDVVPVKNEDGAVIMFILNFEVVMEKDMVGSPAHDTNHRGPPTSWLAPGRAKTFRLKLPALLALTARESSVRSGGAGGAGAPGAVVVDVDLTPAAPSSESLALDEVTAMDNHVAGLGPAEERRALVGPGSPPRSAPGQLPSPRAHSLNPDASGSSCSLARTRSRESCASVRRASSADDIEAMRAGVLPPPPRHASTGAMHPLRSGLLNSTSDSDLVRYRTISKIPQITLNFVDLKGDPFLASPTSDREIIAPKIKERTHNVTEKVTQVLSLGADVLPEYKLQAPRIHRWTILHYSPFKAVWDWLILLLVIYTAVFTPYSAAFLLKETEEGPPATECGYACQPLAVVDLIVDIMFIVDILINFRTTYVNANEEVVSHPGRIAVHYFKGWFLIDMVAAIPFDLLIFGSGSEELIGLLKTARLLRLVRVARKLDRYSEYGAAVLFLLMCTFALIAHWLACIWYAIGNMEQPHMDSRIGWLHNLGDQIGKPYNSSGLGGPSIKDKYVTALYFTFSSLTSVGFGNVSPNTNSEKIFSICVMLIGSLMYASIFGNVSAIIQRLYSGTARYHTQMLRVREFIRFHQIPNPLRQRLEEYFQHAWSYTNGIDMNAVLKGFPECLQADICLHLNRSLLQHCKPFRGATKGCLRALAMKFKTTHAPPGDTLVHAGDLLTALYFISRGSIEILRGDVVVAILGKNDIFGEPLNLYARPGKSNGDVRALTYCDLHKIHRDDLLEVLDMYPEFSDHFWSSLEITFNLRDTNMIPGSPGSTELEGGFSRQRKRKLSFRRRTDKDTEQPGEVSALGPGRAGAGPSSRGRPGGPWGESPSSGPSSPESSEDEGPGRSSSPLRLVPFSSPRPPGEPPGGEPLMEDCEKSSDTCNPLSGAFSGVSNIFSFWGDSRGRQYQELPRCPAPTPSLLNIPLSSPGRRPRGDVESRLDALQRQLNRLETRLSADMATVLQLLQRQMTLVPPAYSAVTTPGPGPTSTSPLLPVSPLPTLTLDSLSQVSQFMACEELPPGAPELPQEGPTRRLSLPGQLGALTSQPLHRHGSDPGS

Compound | hERG current change (%, negative = inhibition) at 10uM [%]
O=C(CCNS(=O)(=O)c1c(Cl)cccc1Cl)N1CCCC1 | 4.43
CC(=O)Nc1cccc(NC=C(C#N)C#N)c1 | 24.3
Cc1nccn1-c1cc(C(C)(C)C)nc2c(-c3ccccc3)cnn12 | -1.51
CCN(CC)S(=O)(=O)c1ccc(-c2nnc(SCC(=O)c3ccc(OC)cc3)o2)cc1 | 4.87
O=C(N/N=C/c1ccccc1F)c1csc2c1CCCC2 | -2.82
COc1ccc(S(=O)(=O)N2CCCCCC2)cc1C(=O)N(C)Cc1c(F)cccc1Cl | -49.8
COc1ccc(N=Nc2ccc3ccccc3c2)c(O)c1 | 2.12
CC(=O)c1ccc(-c2nnc(CCC(=O)N3CCCC(C(=O)CC(C)C)C3)o2)s1 (stereo not drawn) | -8.98
O=S(=O)(NCc1ccco1)c1cccc2cccnc12 | -22.3
CCOC(=O)c1c(C)[nH]c(C(=O)COC(=O)c2cnc(C)cn2)c1C | 2.47
O=C(O)CC(NC(=O)COc1ccccc1)c1cccc([N+](=O)[O-])c1 (stereo not drawn) | 18.8
O=C(N/N=C\c1cccc([N+](=O)[O-])c1O)C1COc2ccccc2O1 (stereo not drawn) | 1.08
Cc1nn(Cc2ccccc2)c(Cl)c1C(=O)OCc1nnc(-c2ccccc2)o1 | -9.19
CC1CCCC(C)N1c1nnc(NC(=O)Cn2c(=O)oc3ccccc32)s1 (stereo not drawn) | -4.03
COc1cccc(N2C(=O)CC(N3CCN(c4ccc([N+](=O)[O-])cc4)CC3)C2=O)c1 (stereo not drawn) | -52.1
O=C(N/N=C/c1ccoc1)c1cc(O)cc(O)c1 | 13.4
CCN(CCCNC(=O)C1CCC(=O)N1Cc1ccc(C)cc1)c1cccc(C)c1 (stereo not drawn) | -24.9
O=C(N=C1N=C2C=CC(Br)=CN2Cc2ccccc21)c1ccc([N+](=O)[O-])cc1[N+](=O)[O-] | 10.5
Cc1ccc(N2C(=O)NC(=O)/C(=C\c3ccoc3)C2=O)cc1 | 22
CC1(C)CC(=O)C=C(Nc2ccccc2C#N)C1.Cl | 14
O=C(OCCN1C(=O)c2ccccc2C1=O)c1ccc(S(=O)(=O)N2CCCCCC2)cc1 | 1.84
COc1ccc(-c2nn(-c3ccccc3)cc2C(=O)O)cc1N | 5.05
CCOC(=O)N/N=C/c1ccc(F)cc1 | 1.6

Compound | hERG current change (%, negative = inhibition) at 10uM [%]
Cn1c(CCN2CCOCC2)nc2cc(NC(=O)COc3ccccc3)ccc21 | -15.1
Cc1ccccc1NC(=S)NCc1ccc(F)cc1 | 12.3
CCCn1c(=N)c(C#N)cc2c(=O)n3ccccc3nc21 | -9.89
COc1cc(C)c(NC(=S)Nc2cccc(Cl)c2C)cc1OC | 11.1
CCS(=O)(=O)Nc1cccc(C(=O)CC2(O)C(=O)Nc3ccccc32)c1 (stereo not drawn) | 11.5
Cc1ccc(C)n1-c1ccc(C(=O)Nc2ccccc2)cc1 | -16.2
CN(C)C(=O)Oc1ccc(OCc2cccc[n+]2C)cc1.Cc1ccc(S(=O)(=O)[O-])cc1 | -5.87
COc1ccc(/C=N/N=C2/C(=O)Nc3ccccc32)cc1O | 15.7
CO/N=C/c1ccc(Sc2ccccc2)c([N+](=O)[O-])c1 | 14
Cc1onc(-c2ccccc2)c1C(=O)Nc1ccc(S(=O)(=O)N2CCCCC2)cc1 | 15.6
COc1ccc(N2CCN(C(=O)Nc3ccccc3Cl)CC2)cc1 | 4.49
N#CCCN1CCN(S(=O)(=O)c2ccc(S(=O)(=O)N3CCCC3)cc2)CC1 | 4.66
O=C(Nc1ccc(F)cc1)c1oc2ccccc2c1NC(=O)C1CCCC1 | -4.15
CCOC(=O)C1(CCSC)NC(c2ccco2)C2C(=O)N(CC)C(=O)C21 (stereo not drawn) | 9.77
C/C(=N\Nc1nc(N2CCOCC2)nc(N2CCOCC2)n1)c1ccc([N+](=O)[O-])cc1 | 7.16
Cc1n[nH]c(=O)c2c(NC(=O)CSc3nc4ccccc4c(=O)n3-c3ccc(OC(F)F)cc3)oc(C)c12 | -59.2
CCOC(=O)c1cnc2cc(F)c(F)cc2c1N1CCN(C)CC1 | -16.4
O=C(NCc1ccncc1)Nc1ccc(Cl)cc1Cl | 0.195
CNc1oc(-c2ccccc2)nc1C#N | 11.8
Cc1cccc(-n2ncc3c(NCCc4ccc(S(N)(=O)=O)cc4)ncnc32)c1 | -20.9
Cc1ccc(S(=O)(=O)Oc2ccccc2/C=N/Nc2ccc(C(=O)O)cc2)cc1 | 7.71
CC1CCN(CC(=O)NC2CCCCC2)CC1.Cl | 22.1
CCOCCCN1CC(C(=O)NCCc2ccccc2)CC1=O (stereo not drawn) | -4.9

Compound | hERG current change (%, negative = inhibition) at 10uM [%]
CCOC(=O)Cc1csc(NC(=O)Cc2ccc([N+](=O)[O-])cc2)n1 | -64.9
CCN=C1SC(CC(=O)NC(C)C)C(=O)N1CC (stereo not drawn) | -23.9
Cc1ccccc1N1C(=O)C2C3C=CC(CC3)C2C1=O (stereo not drawn) | 16.4
Cc1ccc(C)n1NC(=O)c1cccc(Cl)c1 | 0.42
CCC[N+]12CCC(CC1)C(C(O)(c1ccccc1)c1ccccc1)C2.[Br-] (stereo not drawn) | -0.95
CN(c1nc2c(c(=O)n(C)c(=O)n2C)n1CC(=O)c1ccccc1)C1CCCCC1 | -23.9
CCOC(=O)c1ccc(S(=O)(=O)NNC(=O)COc2ccccc2C)cc1 | 27.5
COC(=O)c1ccc(COC(=O)c2ccc(N(C)C)cc2)cc1 | -6.19
COc1cc(NC(=O)C/C(C)=N/NC(=O)c2cccs2)c(OC)cc1Cl | -14.4
O=C(Nc1ccc(Br)cn1)c1ccc(Cl)s1 | 16.8
O=C1CCCC2=C1C(Cc1ccccc1)C1=C(CCCC1=O)O2 | -3.32
O=C(Cn1cnc2ccccc2c1=O)Nc1nnc(C2CC2)s1 | 11.9
O=C(Cn1cnc2c(nnn2Cc2ccc(F)cc2)c1=O)NCc1ccc2c(c1)OCO2 | -17.2
CCCCNCc1cc2ccccc2o1.Cl | -6.61
COc1ccccc1N1CCN(C(=S)Nc2ccc(F)cc2)CC1 | 19
CC1=Nc2ccccc2/C1=C/c1c(O)n(C)c(=O)[nH]c1=O | 19.7
O=C(NCC1CCCO1)c1ccc(-c2ccccc2Cl)o1 (stereo not drawn) | 1.7
Cc1ccccc1-c1ccc(/C=C2/SC(N3CCOCC3)=NC2=O)o1 | -15.9
Cl.O=C1CSC(c2cn(-c3ccccc3)nc2-c2ccc3c(c2)OCCO3)N1CCN1CCOCC1 (stereo not drawn) | -21.2
COc1ccc(/C=C/c2ccc(=O)n(Cc3ccccc3)n2)cc1 | -16.5
C/C(=N\NC(=O)c1ccccc1)c1cc2cc([N+](=O)[O-])ccc2oc1=O | -9.86
Cc1ccc(S(=O)(=O)[O-])cc1.c1cnc2c(c1)ccc1ccc[nH+]c12 | 26.4
CCCc1nn2c(=O)cc(CSCC(=O)Nc3ccc(F)cc3)nc2s1 | -1.51

Compound | hERG current change (%, negative = inhibition) at 10uM [%]
CCOC(=O)c1c(CC(C)C)csc1N | 10.4
Cc1ccc(-c2noc(CCCC(=O)Nc3cccnc3)n2)cc1 | -12.9
CS(=O)(=O)Nc1ccc(C2=NN(S(C)(=O)=O)C(c3cccs3)C2)cc1 (stereo not drawn) | -49
Cc1cccc(N2C(=O)CC(N3CCN(C(=O)c4ccccc4)CC3)C2=O)c1 (stereo not drawn) | 2.35
O=C(NCCN1CCOCC1)c1cn(CCc2ccccc2)nn1 | -1.96
COc1ccccc1CNC(=O)COC(=O)Cc1ccc(F)cc1 | 8.81
CN(c1ccc(C(=O)Nc2ccccc2Sc2ccccc2)cc1)S(C)(=O)=O | -20.1
CCOC(=O)CCn1nc(-c2ccc(C)cc2)c2ccccc2c1=O | -29.8
Cc1cc(C)cc(OCC(=O)Nc2ccncc2)c1 | -18.9
CC(=O)NN1C(=O)c2ccccc2NC1c1ccco1 (stereo not drawn) | 15.7
Cc1ccc(S(=O)(=O)NCCC(=O)N2CCCC(C)C2)cc1 (stereo not drawn) | -22.3
O=C(Nc1ccc(SC(F)F)cc1)c1cccc2nc3ccccc3nc12 | 12.7
Cc1ccc(NC(=O)C2CC3CCC2C3)c(Br)c1 (stereo not drawn) | 11.2
COc1ccc(OC)c(C(O)C2CCCCN2)c1.Cl (stereo not drawn) | 4.37
O=C(NCC1CC1)c1ccccc1Cl | 11.6
CCOC(=S)SCC(=O)N1CCc2ccccc2C1C1C(=O)CCCC1=O (stereo not drawn) | 10.2
Cc1ccc2nc(-c3ccncc3)cc(C(=O)NCc3ccccc3F)c2c1 | 17.5
COC(=O)CSC(C)C(=O)Nc1nnc(C(C)C)s1 (stereo not drawn) | 5.65
Cc1cccc(NC(=O)CSc2nc3c(oc4ccccc43)c(=O)n2-c2ccccc2)c1 | -3.41
CS(=O)(=O)N(Cc1ccccc1)c1ccccc1C(=O)N1CCN(c2ccccc2)CC1 | -46.6
N/C(=N\c1nc(CSc2ccc(Cl)cc2)cc(=O)[nH]1)Nc1cccc2ccccc12 | 3.98
